# Laboratory results: PubChem BioAssay (NCI)
#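 Test compounds were applied to cells in 96-well plates for 48 hours at 5 doses. Abbreviation: GI50, concentration required for 50% inhibition of growth. TGI: concentration producing complete growth inhibition.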
# Tested on: NCI-H322M lung
# Test: NCI anticancer screen, dose series, 48 h
SMILES,TGI [µM],GI50 [µM]
C[Si](C)(OCCS(=O)(=O)O)C1(Cc2cccc3ccccc23)S(=O)(=O)OCCOS1(=O)=O,48.9,–
O=C(Nc1cccc(-n2ccc3c(NC(=O)c4ccccc4)nccc32)c1)Nc1cc(C(F)(F)F)cc(C(F)(F)F)c1,> 50,16.8
COc1ccc(-c2cn[nH]c2-c2cc(OC)c3c(c2)OCO3)cc1,43,0.704
CC(C)OP(=O)(OC(C)C)/C(I)=N/Nc1ccc([N+](=O)[O-])cc1,> 100,–
